# Source: patent US20130109581A1, “POSITIVELY CHARGED SPECIES AS BINDING REAGENTS IN THE SEPARATION OF PROTEIN AGGREGATES FROM MONOMERS” (priority 2009, published 2013)
# Biological target: Abeta42 globulomer (Homo sapiens, UniProt P05067)
# Parameters: beta amyloid (1-42) was monomerized with incubation in hexafluoroisopropanol
# Protocol: Selected peptides from Table 15 were conjugated to DYNAL beads using the linker Ac-Cys-Lys-Ahx-Ahx at the amino terminus of the peptides, following the same protocol as described above. The charge density of these reagents on beads was as low as about 4000 nmol/m^2, for the peptides with only one positively charged residue, and proportionally higher for the peptides with more than one positively charged residues. […] All of the sequences listed in table 15 that were tested on beads were validated to bind Abeta42 globulomer specifically when coated to beads (Table 15 and data not shown)
row,Sequence,Specifically bound Aβ42 globulomers on beads?
1,IRYVTHQYILWP,Yes
2,KFYLYAIDTHRM,Yes
3,KIIKWGIFWMQG,Yes
4,KLSLIWLHTHWH,Yes
5,LIPIRKKYFFKL,Yes
6,LTAVKKVKAPTR,Yes
7,MKFMKMHNKKRY,Yes
8,WAVKLFTFFMFH,Yes
9,YNKIGVVRLFSE,Yes
10,YQSWWFFYFKLA,Yes
11,YRHRWEVMLWWP,Yes
